Experimental data from PubChem BioAssay (NCATS).
This list was built around the results that the source calls inconclusive (neither active nor inactive); the mix of calls is not that of the screen. Potencies of inconclusive entries are doubtful fits and often do not repeat. Active and inactive are the calls of the source. The call rests on the fitted dose curve; in most records, active means well fitted cell-killing curve with a large enough effect; inconclusive means small, poorly fitted or top-dose-only effect, or effect the other way; inactive means flat fitted curve, though single readings scatter.
On the % scale 0 is the no-effect control and ±100 the full control effect; potency means the concentration at half of the fitted maximal effect; tags describe the fitted curve by direction and shape.

Each molecule was assayed on C33A (assay: Primary qHTS to identify gynecologic anti-cancer compounds using libraries of approved drugs and bioactive compounds (AID 1345084; further: nearly all actives have a fitted effect of over 55% in size)). Settings: Gynecologic cancer cell panel viability, ATPlite luminescence, 48 h; series mostly up to 57.5 µM; activity change, negative = cytotoxicity: at the top concentration.
Summary of the method: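 Cytotoxicity screen measuring ATP content by luciferase luminescence. Each compound is applied at five concentrations for 48 h at 37 C with 5% CO2.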
In the case of `CN1CN(c2ccccc2)C2(CCN(CCCC(=O)c3ccc(F)cc3)CC2)C1=O`, the Potency is reported as inconclusive: 39.8 µM [rising, single point]. In the case of `COc1cc(CC(C)N)cc(OC)c1OC` (stereo unspecified), the Potency is reported as inconclusive: 0.316 µM [cytotoxic, full curve, poor fit]. With `O=C1NCN(c2ccccc2)C12CCN(CC1COc3ccccc3O1)CC2` (stereo unspecified) the “activity change, negative = cytotoxicity” value was inactive: 2.64%. In the case of `C=C(C)[C@@]12O[C@@H]1[C@@]1(C)C(=CC2=O)CC[C@@H](OC(C)=O)[C@@H]1C`, the Potency is reported as inconclusive: 7.08 µM [cytotoxic, partial curve]. `CC1CCCC(O)CCC/C=C/c2cc(O)cc(O)c2C(=O)O1` (stereo unspecified) was tested, and the Potency was inconclusive: 28.2 µM [cytotoxic, partial curve, poor fit]. For `O=C(N[C@H]1CN2CCC1CC2)c1ccc(Cl)cc1`, the “activity change, negative = cytotoxicity” value was inactive: 14.5%. For `COC(C)(C)CCCC(C)C/C=C/C(C)=C/C(=O)OC(C)C` (stereo unspecified), the “activity change, negative = cytotoxicity” value was inactive: 12.7%. For `C[C@]12CC[C@H](O[C@@H]3O[C@H](CO)[C@@H](O)[C@H](O)[C@H]3O[C@@H]3O[C@H](CO)[C@@H](O)[C@H](O)[C@H]3O)CC1=CC[C@@H]1[C@@H]2CC[C@]2(C)[C@@H](C3=CC(=O)OC3)CC[C@]12O`, the Potency was inconclusive: 11.2 µM [cytotoxic, single point]. For `COc1cc(C[C@@H](C)N)c(OC)cc1C`, the Potency was inconclusive: 20 µM [cytotoxic, partial curve, poor fit]. In the case of `Cc1ccc(-n2nccn2)c(C(=O)N2CCN(c3nc4cc(Cl)ccc4o3)CCC2C)c1` (stereo unspecified), the “activity change, negative = cytotoxicity” value is reported as inactive: -15.6%. With `CC[C@H]1CN2CC[C@H]1C[C@H]2[C@H](O)c1ccnc2ccc(OC)cc12` the “activity change, negative = cytotoxicity” value was inactive: 1.57% [at 38.5 µM].
